These results are taken from the supplement of paper PMC4967469.

Lines with a small IC50 respond at low doses; where the fit passes the top or lowest dose, that dose stands as a limit. The AUC spans the tested range (256-fold, ending at the top dose) of the same fit: 1 means no effect, lower means more sensitive. For part of these data: Where the top dose is marked as inferred, it was calculated from the reported fits. For part of these data: An entry number marks a drug with two screens in the source, which often give different values.

Holding throughout (assay): Viability of human cancer cell lines after 72 h of drug (GDSC screen)
Compound in one test: NC(=O)c1cccc(-c2cc(Nc3ccc(OC(F)(F)F)cc3)ncn2)c1 [GNF-2]
As to conditions: top dose 1.28 µM; top dose inferred. The method, then: (§1)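 Human cancer cell lines in 384-well plates, medium with 10% serum, drug for 72 h over a 256-fold dose range (nine 2-fold or five 4-fold steps up to the top dose). Adherent lines were fixed and stained with the nucleic acid dye Syto60, suspension lines read with resazurin; signal relative to control wells, capped at 0 and 100%. One two-parameter sigmoid per drug and line, fitted in a mixed model over all curves with the slope shared within a line.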

Compound in a further test: Cc1cn(-c2cc(NC(=O)c3ccc(C)c(Nc4nccc(-c5cccnc5)n4)c3)cc(C(F)(F)F)c2)cn1 [Nilotinib]
As to conditions: top dose 2 µM. On the procedure: as §1

Compound in a further test: Cc1ccc(Nc2cc(-c3cccc(N4C(=O)c5ccccc5C4=O)c3)ncn2)cc1NS(C)(=O)=O [KIN001-270]
The note with it: top dose 20 µM; top dose inferred. On the procedure:
as §1

Compound in a further test: S=C(NCc1ccc2c(c1)OCO2)N1CCN(c2ncnc3c2oc2ccccc23)CC1 [MP470]
The note with it: top dose 20 µM; top dose inferred. The method, then: as §1

Compound in another test: CC(C)c1ccccc1Cc1cc(C(=O)Nc2ccc(S(=O)(=O)c3ccccc3C(C)(C)C)cc2)c(O)c(O)c1O [TW-37]
As to conditions: top dose 5 µM. On the procedure:
as §1

Compound in the next test: CCNC(=O)c1noc(-c2cc(C(C)C)c(O)cc2O)c1-c1ccc(CN2CCOCC2)cc1 [AUY922]
As to conditions: top dose 0.256 µM; top dose inferred. The method, then: as §1

Compound in the next test: CC(O)(CS(=O)(=O)c1ccc(F)cc1)C(=O)Nc1ccc(C#N)c(C(F)(F)F)c1 [Bicalutamide]
As to conditions: top dose inferred. The method, then:
as §1

Compound in another test: C/C(O)=C(\C#N)C(=O)Nc1cc(Br)ccc1Br [LFM-A13]
As to conditions: top dose 16 µM; top dose inferred. On the procedure:
as §1

Compound in the next test: Nc1ccn([C@@H]2O[C@H](CO)[C@@H](O)C2(F)F)c(=O)n1 [Gemcitabine]
The note with it: top dose 1.024 µM. On the procedure: as §1

Compound in a further test: O=S(=O)(c1ccccc1)N(CC(F)(F)F)c1ccc(C(O)(C(F)(F)F)C(F)(F)F)cc1 [T0901317]
As to conditions: top dose 10.24 µM; top dose inferred. On the procedure: as §1

Where [1] appears, read: top dose 1.024 µM, screen: GDSC drug entry 150.
[2] abbreviates: top dose 10 µM, screen: GDSC drug entry 1502.

In the case of EB2 (Burkitt lymphoma, suspension), the AUC with GNF-2 came out at 0.99; with Nilotinib it was 0.99; in the test with KIN001-270 it was 0.955; in the test with MP470, 0.928; with TW-37 it was 0.614; with AUY922, 0.602. Moreover, the AUC in the test with Bicalutamide (setting [1]) amounted to 0.985; with Bicalutamide (setting [2]) it was 0.989; with LFM-A13 it was 0.987; with Gemcitabine, 0.08; in the test with T0901317, 0.899. Besides, the IC50 was over 1280 nM with GNF-2; over 2000 nM with Nilotinib; over 20000 nM with KIN001-270; over 20000 nM with MP470; 624 nM with TW-37; 29.5 nM in the test with AUY922. Further, the IC50 was over 1020 nM with Bicalutamide (setting [1]); over 10000 nM with Bicalutamide (setting [2]); over 16000 nM with LFM-A13; under 4 nM with Gemcitabine; over 10200 nM with T0901317.
Consider LB831-BLC (bladder, adherent), for which the AUC in the test with GNF-2 came out at 0.972; in the test with Nilotinib it was 0.981; with KIN001-270, 0.845; with MP470, 0.973; in the test with TW-37, 0.636; with AUY922, 0.615. Further, the AUC came out at 0.984 in the test with Bicalutamide (setting [1]); 0.985 in the test with Bicalutamide (setting [2]); 0.984 in the test with LFM-A13; 0.364 in the test with Gemcitabine; 0.97 with T0901317. In addition, the IC50 with GNF-2 is over 1280 nM; in the test with Nilotinib, over 2000 nM; in the test with KIN001-270 it was 14700 nM; with MP470, over 20000 nM; with AUY922 it was 33.4 nM; with Bicalutamide (setting [1]), over 1020 nM. For the same cell line, the IC50 is over 10000 nM with Bicalutamide (setting [2]), over 16000 nM with LFM-A13, 26.7 nM with Gemcitabine and over 10200 nM in the test with T0901317.
Take “P31-FUJ (acute myeloid leukaemia, suspension)”: the AUC came out at 0.996 with GNF-2; 0.995 in the test with Nilotinib; 0.996 with KIN001-270; 0.877 with MP470; 0.834 in the test with TW-37; 0.928 with AUY922. Besides, the AUC was 0.996 with Bicalutamide (setting [1]); 0.996 with Bicalutamide (setting [2]); 0.996 in the test with LFM-A13; 0.993 with Gemcitabine; 0.967 with T0901317. The IC50 with GNF-2 is over 1280 nM; with Nilotinib, over 2000 nM; in the test with KIN001-270, over 20000 nM; with MP470 it was 12200 nM; in the test with TW-37, 2240 nM; in the test with AUY922 it was 248 nM. The IC50 was over 1020 nM with Bicalutamide (setting [1]); over 10000 nM with Bicalutamide (setting [2]); over 16000 nM with LFM-A13; over 1020 nM with Gemcitabine; over 10200 nM in the test with T0901317.
Consider NB(TU)1-10 (neuroblastoma, adherent), for which the AUC with GNF-2 is 0.993; with Nilotinib, 0.988; with KIN001-270, 0.975; with MP470, 0.903; in the test with TW-37, 0.697; in the test with AUY922, 0.611. Moreover, the AUC with Bicalutamide (setting [1]) is 0.993; in the test with Bicalutamide (setting [2]) it was 0.993; with LFM-A13, 0.993; in the test with Gemcitabine, 0.68; with T0901317, 0.993. The IC50 with GNF-2 is over 1280 nM; with Nilotinib, over 2000 nM; with KIN001-270, over 20000 nM; with MP470, over 20000 nM; in the test with TW-37, 1020 nM; with AUY922 it was 30.8 nM. Besides, the IC50 in the test with Bicalutamide (setting [1]) is over 1020 nM; with Bicalutamide (setting [2]), over 10000 nM; with LFM-A13 it was over 16000 nM; with Gemcitabine it was 188 nM; in the test with T0901317, over 10200 nM.
In the case of GCIY (stomach, adherent), the AUC in the test with GNF-2 turned out to be 0.975; with Nilotinib, 0.981; with KIN001-270, 0.964; with MP470, 0.788; in the test with TW-37 it was 0.389; with AUY922, 0.569. The AUC with Bicalutamide (setting [1]) came out at 0.973; in the test with LFM-A13 it was 0.941; with Gemcitabine, 0.562; with T0901317, 0.86. Also, the IC50 in the test with GNF-2 was over 1280 nM; with Nilotinib, over 2000 nM; with KIN001-270 it was over 20000 nM; with MP470, 10000 nM; in the test with TW-37, 148 nM; with AUY922, 25.4 nM. Moreover, the IC50 in the test with Bicalutamide (setting [1]) is over 1020 nM; with LFM-A13, over 16000 nM; with Gemcitabine it was 96.4 nM; with T0901317 it was over 10200 nM.
As for “RPMI-6666 (Hodgkin lymphoma, suspension)”, the AUC with GNF-2 stood at 0.98; with Nilotinib, 0.969; in the test with KIN001-270, 0.899; in the test with MP470 it was 0.982; in the test with TW-37 it was 0.763; with AUY922, 0.374. Besides, the AUC in the test with Bicalutamide (setting [1]) amounted to 0.981; in the test with Bicalutamide (setting [2]) it was 0.979; with LFM-A13, 0.896; with Gemcitabine it was 0.121; in the test with T0901317, 0.896. The IC50 was over 1280 nM in the test with GNF-2; over 2000 nM with Nilotinib; over 20000 nM with KIN001-270; over 20000 nM with MP470; 2160 nM with TW-37; 6.69 nM in the test with AUY922. The IC50 in the test with Bicalutamide (setting [1]) was over 1020 nM; with Bicalutamide (setting [2]), over 10000 nM; with LFM-A13, over 16000 nM; in the test with Gemcitabine, under 4 nM; in the test with T0901317, over 10200 nM.

The term IC50 denotes the concentration that inhibits the measured activity by half.
